# ± gives the standard deviation of the averaged measurements. The list shows a part of the results.
# Tested on: PfAP2-EXP AP2 domain (GST-tagged)
# Assay: gcPBM binding intensity (ln(normalized median fluorescence intensity)); higher = stronger DNA binding
# In short: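 GST-tagged P. falciparum DNA-binding domains, expressed in E. coli (about 25 μg on average), were applied for 1 h to an Agilent 4 × 180k array of primer-extended double-stranded 36-bp intergenic genomic probes plus negative controls. The binding buffer was 1× PBS with 1% milk, 0.2 mg/ml BSA, 0.5% salmon testes DNA and 0.03% Triton X-100. Bound protein was detected with Alexa488 anti-GST antibody and scanned at 488 nm. Binding intensity is the highest Masliner-normalised natural-log median intensity across replicate spots of either probe orientation.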
row,Sequence,gcPBM binding intensity (ln)
1,TGTATTAACAAAAAGGTGCGGATATATATAAAAAAT [GTGCAC_site9473],9.37 ± 0.63
2,TTAATATATATATATATATATATATTTTTATTTTTT [CACACA_negctrl_site763],8.38 ± 0.092
3,AAAATGTTATTGGAAAGTACAAAAAAAATTATATAA [XGTACX_site4074],8.65 ± 0.37
4,CATATATAGATATATACACACATATATAAATAAATA [CACACA_site6759],8.43 ± 0.35
5,ATAAAACGTACAATGGTGCATATAAATAATATATAT [GTGCAC_site9960],9.15 ± 0.028
6,TATGTATATTCTTTCAGTACACATAATGTTGTCATA [XGTACX_site8845],8.69 ± 0.3
7,TTCAATATACATATGTGTACTAAAATAAATAGAAAA [XGTACX_site5708],8.8 ± 0.37
8,ATTACAACATTTTATACACACGTGATTATTAATTTT [CACACA_site5581],8.68 ± 0.38
9,TAAATATATTTATACACACACACCAAAGCAATAGAT [CACACA_site7393],9.12 ± 0.35
10,GGATTCAAAAAAAAAAATAAAAGTAAATAATAAATA [TGCATGCA_negctrl_site348],8.27 ± 0.42
11,TTTATGAAGTAAAAATATAAATTCACAAAGTTAAAA [CACACA_negctrl_site1476],8.37 ± 0.39
12,AAGAACAGAACGTACACACACATATTTATATTTATA [CACACA_site7594],8.48 ± 0.45
13,TATATTTCAGGGGGGAGTACAAATTTTTTTATATAA [XGTACX_site1600],10.9 ± 0.38
14,TAAGGAAAAAAAATATGTACTTATAGTTCCTTCTTT [XGTACX_site2202],8.27 ± 0.42
15,ATTTGTAATATTAAATGTACAGGTAAGAAATATCAG [XGTACX_site1562],9.01 ± 0.44
16,TTATATATATATATATATATATATATATATATAAAT [GTGCAC_negctrl_site126],8.97 ± 0.014
17,CATTATGTACAAAAAGTGCAATATATATTAACACTG,8.79 ± 0.16
18,AACAAAATAAGAAAACGTACAAATGTTTCAAATTCT [XGTACX_site1544],8.62 ± 0.56
19,TTTTCAAAGATATATACACACATGCATATTACGGTG [CACACA_site6505],8.7 ± 0.45
20,TTTTTGAGTGCACATACACACAGACATACATTTAAA [CACACA_site5813],9.28 ± 0.22
21,TTAATAAATATCAATACACACACACTAATGTGAATA [CACACA_site9254],8.26 ± 0.48
22,TATCCATATTTGTTCACACACACACCCATTTATATA [CACACA_site3571],9.01 ± 0.52

row,Sequence,gcPBM binding intensity (ln)
1,ATTTTTATGTTGAAAAGTACTTGAATCCCATGTAAC [XGTACX_site4453],8.62 ± 0.36
2,TATTTATTTATTTAGTGTACATTTATATTTGTTCAT [XGTACX_site7575],8.74 ± 0.34
3,TTCTTTTTTTTTAAAACAAACAAACAAACAAACAAA [CACACA_negctrl_site832],8.53 ± 0.4
4,TTAATCTTTCCTACATGTACACACAGAAAAAAAAAA [XGTACX_site5213],8.52 ± 0.35
5,TTGTTCTTTCAAATTATACACACCAAAAAAAAAAAA [CACACA_site3070],8.53 ± 0.4
6,TACAAATGAGAAATATGTACATAAAAAAAAAAAAAT [XGTACX_site801],8.77 ± 0.47
7,AATATAAATAAAAAATTGATTTCTTTAAAAAGGTAT [CACACA_negctrl_site1038],8.29 ± 0.54
8,TAATCATAAAAAAATACACACATATATAATATATAT [CACACA_site1983],8.51 ± 0.3
9,ATACAAAATCTAATTTGTACACAATGTTTGATTTTT [XGTACX_site5438],8.34 ± 0.54
10,ATATAACATGGACACACACACATATATATATATTAT [CACACA_site6135],8.75 ± 0.42
11,ATACAAATTAAGCCTCAAGTTCTTTTTTTTAACATA [XGTACX_negctrl_site580],8.21 ± 0.4
12,GGTGCACCCATATACACACACAAATACAATGATAAA [CACACA_site1132],8.88 ± 0.19
13,GTGAAATTATATTTTTGTACATATATTATATATTAT [XGTACX_site3387],8.52 ± 0.32
14,AAAAAAAAGAATTATTGTACAAAAGAACAATAAATA [XGTACX_site1368],8.42 ± 0.4
15,ATCGAAGGGGTACAAAATAAAAATAATTCTTTCAAA [TGCATGCA_negctrl_site373],8.51 ± 0.47
16,GTATATATCTAAAAATATATATATATATATATATAT [CACACA_negctrl_site788],10.1 ± 0.4
17,TATAAATAAATATGGAGTACCAAAAAAATTATAAAA [XGTACX_site7581],8.6 ± 0.33
18,AAGTGTTATGAAATATGTACACATATATTATATATA [XGTACX_site6022],8.51 ± 0.23
19,TTTTTATTAAATAAAGCACACACAACAACTTTTCAC [CACACA_site9372],8.94 ± 0.36
20,AAATATAAAAAAAAAAGTACTTTGTTACTTTTCTAT [XGTACX_site6034],8.04 ± 0.36
21,AACTGCAAAAAAAGACGTACAAATTATTAATTGCAA [XGTACX_site8929],8.7 ± 0.53
22,AAAATAAATATAACCACACACGAAAGAGAGAGAAAA [CACACA_site3272],8.88 ± 0.46

row,Sequence,gcPBM binding intensity (ln)
1,TAACCATAAGAAGATTGTACATAATAAAAGTATTCT [XGTACX_site1117],8.64 ± 0.58
2,ATTTAAAATGGTTATACACACATAAAAGGGGAAATG [CACACA_site2649],8.95 ± 0.57
3,ATATATATATATATATGTACATACCCAATTGTGTAA [XGTACX_site6352],10.1 ± 0.59
4,TACAGACATACATACACACATACATATATATATATA [CACACA_site1940],10.1 ± 0.11
5,CATAAAAATGAACATACACACATATATATATATATA [CACACA_site2498],10.1 ± 0.43
6,TTGCTTTCTTTTTTTTGTACTCATATCTACTATCAT [XGTACX_site7711],9.04 ± 0.46
7,CGAGCAAGACGGGGTGCACACAAACTAATATGCCGA [CACACA_site7936],9.85 ± 0.97
8,ATTATTATGTAGAAGGTGCTATGTTCTATAAATATA [GTGCAC_site9545],8.42 ± 0.24
9,TACCTTTATTAATAAAGTACATTAATCTGTGTATAC [XGTACX_site8720],8.46 ± 0.36
10,TTTTTGTTAAAATAAATATTATAAATATATTAATAT [TGCATGCA_negctrl_site239],7.92 ± 0.27
11,TACATATTTTATAGCACACAAATAATAATATGTAGT [CACACA_site688],8.68 ± 0.31
12,AAAAAAAAAAAAATGTGGACACAATTGTGTGTTTGT [XGTACX_site3563],9.18 ± 0.8
13,GTTGTGGAAAGAAGTTGTACATAAAATATTATATAA [XGTACX_site4352],8.63 ± 0.42
14,AGGCCTTTTAGTATTTCACACACGTAAATGCGTATA [CACACA_site1108],8.49 ± 0.41
15,TTTTTTCTTTTTTTTTTTAATTATAAACATGATATT [GTGCAC_negctrl_site144],8.26 ± 0.47
16,TAAATATATATAACATGTACATAAAATATATATATA [XGTACX_site4431],9.53 ± 0.13
17,TATCTTCATTGTTGACGTACAGTATTTCTAAACGTT [XGTACX_site3439],8.82 ± 0.31
18,CTATGAACACACACATGTACATATATTAACTCGCTA [XGTACX_site8805],8.57 ± 0.31
19,CCACTTGTGTAATGTTGTACAAAAATAAATATATTT [XGTACX_site4598],8.6 ± 0.4
20,ATAATTAAAAATAATATATATATAATATGATATTAT [GTGCAC_negctrl_site194],8.09 ± 0.35
21,TACACATACAGACATACACACATACACATATACACA [CACACA_site6918],8.66 ± 0.38
22,AAAAAAAAAAAAAACACACACACACGCACATATACA [CACACA_site7288],8.71 ± 0.47

row,Sequence,gcPBM binding intensity (ln)
1,TATATTAAACAATATACACACATTAATGTAGACATA [CACACA_site8889],8.68 ± 0.47
2,TTATAATATATATCTGCATGTTGCTTTGGGGCTTTA [TGCATGCA_site712],9.29 ± 0.64
3,GAAAATTCTTAAGGCACACACATATAAGATATATAC [CACACA_site6410],8.7 ± 0.28
4,TTTCAGACAAAAAAAAAAAAAAAAAAGAGGAGAATA [CACACA_negctrl_site254],8.29 ± 0.58
5,TTTAAGCAAAGACACACACACATATTTATATTTATA [CACACA_site6295],8.46 ± 0.42
6,AAACATTTATACAAAGCACACAATTTTTAACTTTTA [CACACA_site2627],8.25 ± 0.34
7,AACCTTTTAAGAGTTGCACACGTACAAAAAAAAAAA [CACACA_site9159],8.63 ± 0.36
8,AATAAAAAAAAAAAAAAAAAAAAAAACCTGAGGAGT [CACACA_negctrl_site1140],8.21 ± 0.71
9,TTATTCATAAAAACAAAAAACAAAAATGAAATAGGA [CACACA_negctrl_site1123],8.77 ± 0.56
10,TATGATATAATATACACACATACATATATATATATA [CACACA_site510],9.96 ± 0.42
11,AGAGTTCTCCTATGCACACAAAAAACTTTCATTTAT [CACACA_site4193],8.46 ± 0.25
12,TTAATATTTTATTTCACACACATAAATGCCCCAAAC [CACACA_site1887],9.14 ± 0.34
13,TATTATGTCTAAAATAACATATTAATATATTATTTC [CACACA_negctrl_site285],8.23 ± 0.38
14,AAATAATTTTTATTTGTACACACATACATATATATT [CACACA_site8240],8.46 ± 0.28
15,TAAATAAAGATATATACACACATATTTATATTTATA [CACACA_site6431],8.1 ± 0.38
16,CATCATATAAATTCAAGTACAAGAAAAAGTAATATA [XGTACX_site2383],8.69 ± 0.45
17,ATATCTACTTTTTTATGTACGAAAAAAATACGGATT [XGTACX_site8937],8.65 ± 0.6
18,ACAAAATTGAAATTCACACAAAAACTATACTTTTTA [CACACA_site4638],8.05 ± 0.47
19,TTTTTTTTTTTTTTTGTGCACAATATAATTTTTAAT [GTGCAC_site9747],8.755 ± 0.021
20,TATATATATATTAATAGTACATATTATGTAAGCCTA [XGTACX_site2826],9.43 ± 0.099
21,ATAAAACAAATGAGTACACACACATAAAAATTGAAA [CACACA_site7949],8.79 ± 0.35
22,AAAAAATACATACATACACACATATATATATATATA [CACACA_site913],10.1 ± 0.31

# Reference: the supplement of paper PMC11417369
